The source of these data is a melting point compilation (Tetko et al.; mined from patent text by program, amines drawn as free bases though some values may be those of a salt).

Each structure is given as a SMILES string.

`O=C(Nc1cccc(S(=O)(=O)NC2(CO)CCCC2)c1)c1cnn2c(C(F)(F)F)cc(-c3ccc(Cl)cc3)nc12` showed a melting point of 253 to 255 °C.

As to `OC1(c2nc3ccccc3s2)CCC2(CC1)OCCO2`, the melting point came to 165 °C.

The melting point is the temperature of the solid-liquid transition.
